Results as given in article PMC4336329 (PLoS ONE, 2015).
In all, about 310,000 compounds went through this assay and about 14,000 (4.5%) showed an effect of 50% or more. Effects have a minus sign here. The list shows a part of the results.

Target: human ether-à-go-go-related gene (hERG) potassium channel (human, UniProt Q12809)
Experiment: primary screen, population patch clamp on CHO cells stably expressing hERG
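Further: peak tail current of the secondary pulse compared with the same well before compound.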

human ether-à-go-go-related gene (hERG) potassium channel, sequence (Q12809 whole entry, looked up): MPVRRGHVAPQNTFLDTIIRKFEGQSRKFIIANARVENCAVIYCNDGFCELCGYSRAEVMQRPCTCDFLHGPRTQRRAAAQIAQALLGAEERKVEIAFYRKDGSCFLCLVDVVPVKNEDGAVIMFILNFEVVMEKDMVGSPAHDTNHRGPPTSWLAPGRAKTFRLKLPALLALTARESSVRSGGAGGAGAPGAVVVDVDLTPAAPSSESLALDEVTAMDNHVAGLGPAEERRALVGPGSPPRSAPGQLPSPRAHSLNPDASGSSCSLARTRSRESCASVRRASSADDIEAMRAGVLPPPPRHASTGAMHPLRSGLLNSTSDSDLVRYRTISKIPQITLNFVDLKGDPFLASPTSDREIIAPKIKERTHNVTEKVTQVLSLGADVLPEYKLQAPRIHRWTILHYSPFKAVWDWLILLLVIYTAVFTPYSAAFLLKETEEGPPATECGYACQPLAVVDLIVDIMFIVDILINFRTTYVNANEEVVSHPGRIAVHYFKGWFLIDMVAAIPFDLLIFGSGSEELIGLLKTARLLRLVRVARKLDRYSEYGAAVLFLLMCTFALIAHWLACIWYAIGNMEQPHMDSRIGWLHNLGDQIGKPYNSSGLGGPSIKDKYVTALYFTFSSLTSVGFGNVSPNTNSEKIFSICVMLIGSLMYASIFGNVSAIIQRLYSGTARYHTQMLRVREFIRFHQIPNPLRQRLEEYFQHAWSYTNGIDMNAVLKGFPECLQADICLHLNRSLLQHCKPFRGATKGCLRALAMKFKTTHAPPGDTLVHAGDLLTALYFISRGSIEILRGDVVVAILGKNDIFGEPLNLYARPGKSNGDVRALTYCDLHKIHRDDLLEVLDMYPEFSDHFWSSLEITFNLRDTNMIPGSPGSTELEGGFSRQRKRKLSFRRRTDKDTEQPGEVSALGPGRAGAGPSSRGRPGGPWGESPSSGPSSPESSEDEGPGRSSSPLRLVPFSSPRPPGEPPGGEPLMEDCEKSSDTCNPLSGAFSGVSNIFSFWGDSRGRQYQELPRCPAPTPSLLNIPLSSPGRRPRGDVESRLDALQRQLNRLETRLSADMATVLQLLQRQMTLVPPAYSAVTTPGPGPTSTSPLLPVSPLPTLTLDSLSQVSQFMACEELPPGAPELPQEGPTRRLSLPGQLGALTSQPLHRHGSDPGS

Structure (SMILES) | hERG current change (%, negative = inhibition) at 10uM
O=C(c1cc2cc(Br)ccc2o1)N1CCCC1 | -8.69%
CN(CC(=O)Nc1ccccc1Cl)C(=O)CSc1nnc(-c2ccco2)n1C | 2.04%
CC(=O)c1ccc(NC(=O)c2cccs2)cc1 | 11%
Cc1cc(C)nc(NC(=O)CSc2nc3ccccc3s2)n1 | 2.88%
CC(C)C(C(=O)N1CCN(Cc2ccccc2)CC1)c1ccccc1.Cl (stereo not drawn) | -4.29%
CCc1ccc2c(c1)cc(CN(C(=S)Nc1ccc(Cl)cc1)C1CC1)c1nnnn12 | 0.972%
COc1ccc2nc(SCc3ccccc3C)nc(C)c2c1 | -1.69%
CCCOc1ccc(Cn2cnc3ccccc32)cc1 | -10.2%
CC(=O)CC(C)(C)n1c[n+](C)nn1.[O-][Cl+3]([O-])([O-])[O-] | -2.63%
CCc1ccc(NC(=O)[C@H](C)NC(=O)C2CCN(C(=O)[C@@H](NC(=O)OC(C)(C)C)C(C)C)CC2)cc1 | -0.397%
CC(=O)Nc1ccccc1OCc1nnc(-c2ccc(Cl)cc2)o1 | -11.4%
COC(=O)c1cccc(NC(=O)CSc2nnc(C)o2)c1 | -0.823%
COC(=O)Cc1ccc(NC(=S)N2CCC(Cc3ccccc3)CC2)cc1 | 5%
Cc1ccc(C(=O)NNc2cc(N3CCCC3)nc(N3CCCC3)n2)cc1 | -35.4%
COc1ccc(C(=O)CSc2n[nH]c(N)n2)cc1 | 5.79%
CC1CCCCC1NC(=O)CN1C(=O)CSc2cc(S(=O)(=O)N3CCCCCC3)ccc21 (stereo not drawn) | -29.6%
CCN1C(=O)/C(=C\N2CCCCCC2)SC1=S | 3.17%
O=C(Nc1ccc(N2CCN(Cc3ccccc3)CC2)cc1)c1ccccc1[N+](=O)[O-] | 8.53%
O=C(NC1=NCCS1)c1ccc(Br)s1 | -8.38%
CC(C)(C)C1CCc2onc(C(=O)Nc3cccc(O)c3)c2C1 (stereo not drawn) | 1.99%
Nc1cc(=O)[nH]c(SCC(=O)Nc2cccnc2Cl)n1 | 23.3%
CCc1nnc(NC(=O)Cc2cccs2)s1 | 9.45%
Cc1ccc(S(=O)(=O)Cc2ccc(C(=O)N3CCCC3)o2)cc1 | -6.89%

Structure (SMILES) | hERG current change (%, negative = inhibition) at 10uM
O=C(Nc1cc(S(=O)(=O)N2CCCCCC2)ccc1OCC(F)(F)F)C1CCC1 | 9.02%
COc1ccc(-n2nnc3c(=O)n(CC(=O)OCc4ccccc4)cnc32)cc1 | 3.03%
CCCn1ncc(CN2CCCC(C(=O)c3cccc(OC)c3)C2)c1C (stereo not drawn) | -67.8%
CCc1nc2ccccc2n1Cc1ccc(F)cc1 | -0.73%
CCc1nnc(NC(=O)c2ccc3c(c2)C(=O)N(CC)C3=O)s1 | -7.81%
O=C(NC(=S)NCc1ccccc1)c1ccccc1 | 1.09%
N#Cc1cccc(CN2CCC(=O)N(CCO)CC2)c1 | 13.8%
CC1C(=O)C(C)C(c2cccc(Br)c2)NC1c1cccc(Br)c1 (stereo not drawn) | 25.7%
CC(C)(C)CC(=O)Nc1cc(S(=O)(=O)N2CCCCCC2)ccc1Cl | 20.8%
CCOC(=O)c1[nH]c(C)c(CN(Cc2ccco2)C(=O)C(F)(F)F)c1C | -5.22%
CCOc1ccc2c(O)csc2c1 | 11.6%
NNC(=O)Cn1cnc2ccccc21 | 6.05%
O=C(NC1CCCC1)C(c1ccc(Cl)cc1)N(Cc1ccc(F)cc1)C(=O)CCl (stereo not drawn) | -6.62%
CC(Oc1ccccc1F)C(=O)NCCN1CCCCC1 (stereo not drawn) | 1.04%
CN(CC(=O)Nc1cccc(F)c1)C(=O)C1CCN(C(=O)c2ccc(Cl)cc2)CC1 | -55.5%
O=C(Nc1ccc(F)cc1)Nc1nnc(Cc2ccccc2F)s1 | 1.87%
CS(=O)(=O)N1CCN(c2nc3ccc(Cl)cc3s2)CC1 | 5.72%
CN=C1S/C(=C\c2ccc(OCC(=O)OC)c(OC)c2)C(=O)N1C | 12.6%
COc1ccccc1C(=O)Nc1ccc(Cc2ccncc2)cc1 | -22%
CCN(Cc1ccccc1)C(=O)c1ccccc1C | 1.76%
C=CCOC(=O)C1=C(C)OC(N)=C(C#N)C1c1ccccc1F (stereo not drawn) | -38.9%
CC1CC(C)CN(S(=O)(=O)c2ccc(C(=O)OCC(=O)NCCN3C(=O)CSC3=O)cc2)C1 (stereo not drawn) | -17.7%
